Assay results taken from US11420968B2 (priority 2018, dated 2022).

Columns and labels:
Molt-4 cells = assay: cells; settings: Homo sapiens, MOLT-4, read-out: Cellular activity (IC50, nM) Molt-4
RS4;11 cells = assay: cells; settings: Homo sapiens, RS4-11, 48 h, read-out: Cellular activity (IC50, nM) RS4;11

Row | SMILES | IC50 (Molt-4 cells) | IC50 (RS4;11 cells)
1 | O=C(NS(=O)(=O)c1ccc(NCC2CCOCC2)c([N+](=O)[O-])c1)c1ccc(-c2ccc(N3CC4CCCC4C3c3ccccc3C3CC3)cc2)cc1Oc1cnc2[nH]ccc2c1 (stereo not shown) [Example A78, 3-((1H-pyrrolo[2,3-b]pyridin-5-yl)oxy)-4′-(1-(2-cyclopropylphenyl)hexahydrocyclopenta[c]pyrrol-2(1H)-yl)-N-((3-nitro-4-(((tetrahydro-2H-pyran-4-yl)methyl)amino)phenyl)sulfonyl)-[1,1′-biphenyl]-4-carboxamide] | > 10000 nM | 1410 nM
2 | O=C(NS(=O)(=O)c1ccc(NCC2CCOCC2)c([N+](=O)[O-])c1)c1ccc(-c2ccc(N3CCCC3c3ccccc3C3CCOCC3)cc2)cc1Oc1cnc2[nH]ccc2c1 (stereo not shown) [Example A90, 3-((1H-pyrrolo[2,3-b]pyridin-5-yl)oxy)-N-((3-nitro-4-(((tetrahydro-2H-pyran-4-yl)methyl)amino)phenyl)sulfonyl)-4′-(2-(2-(tetrahydro-2H-pyran-4-yl)phenyl)pyrrolidin-1-yl)-[1,1′-biphenyl]-4-carboxamide] | 5600 nM | 71 nM
3 | CN(C)C1CC1c1ccccc1[C@H]1CCCN1c1ccc(-c2ccc(C(=O)NS(=O)(=O)c3ccc(NCC4CCOCC4)c([N+](=O)[O-])c3)c(Oc3cnc4[nH]ccc4c3)c2)cc1 (stereo partly drawn) [Example A97, 3-((1H-pyrrolo[2,3-b]pyridin-5-yl)oxy)-4′-((2R)-2-(2-(2-(dimethylamino)cyclopropyl)phenyl)pyrrolidin-1-yl)-N-((3-nitro-4-(((tetrahydro-2H-pyran-4-yl)methyl)amino)phenyl)sulfonyl)-[1,1′-biphenyl]-4-carboxamide] | 1410 nM | 4.8 nM
4 | CN1CCC(c2ccccc2[C@H]2CCCN2c2ccc(-c3ccc(C(=O)NS(=O)(=O)c4ccc(NCC5CCOCC5)c([N+](=O)[O-])c4)c(Oc4cnc5[nH]ccc5c4)c3)cc2)CC1 [Example A100, (R)-3-((1H-pyrrolo[2,3-b]pyridin-5-yl)oxy)-4′-(2-(2-(1-methylpiperidin-4-yl)phenyl)pyrrolidin-1-yl)-N-((3-nitro-4-(((tetrahydro-2H-pyran-4-yl)methyl)amino)phenyl)sulfonyl)-[1,1′-biphenyl]-4-carboxamide] | > 10000 nM | 4.6 nM
5 | CN1CCC(c2ccccc2[C@H]2CCCN2c2ccc(-c3ccc(C(=O)NS(=O)(=O)c4ccc(NCC5CCOCC5)c([N+](=O)[O-])c4)c(Oc4cnc5[nH]ccc5c4)c3)cc2)CC1=O (stereo partly drawn) [Example A101, 3-((1H-pyrrolo[2,3-b]pyridin-5-yl)oxy)-4′-((2R)-2-(2-(1-methyl-2-oxopiperidin-4-yl)phenyl)pyrrolidin-1-yl)-N-((3-nitro-4-(((tetrahydro-2H-pyran-4-yl)methyl)amino)phenyl)sulfonyl)-[1,1′-biphenyl]-4-carboxamide] | 2410 nM | 7.1 nM
6 | O=C(NS(=O)(=O)c1ccc(NCC2CCOCC2)c([N+](=O)[O-])c1)c1ccc(-c2ccc(N3CCC[C@@H]3c3ccccc3C3CCN(CCO)CC3)cc2)cc1Oc1cnc2[nH]ccc2c1 [Example A103, (R)-3-((1H-pyrrolo[2,3-b]pyridin-5-yl)oxy)-4′-(2-(2-(1-(2-hydroxyethyl)piperidin-4-yl)phenyl)pyrrolidin-1-yl)-N-((3-nitro-4-(((tetrahydro-2H-pyran-4-yl)methyl)amino)phenyl)sulfonyl)-[1,1′-biphenyl]-4-carboxamide] | > 10000 nM | 11 nM
7 | CN(C)C(=O)CN1CCC(c2ccccc2[C@H]2CCCN2c2ccc(-c3ccc(C(=O)NS(=O)(=O)c4ccc(NCC5CCOCC5)c([N+](=O)[O-])c4)c(Oc4cnc5[nH]ccc5c4)c3)cc2)CC1 [Example A104, (R)-3-((1H-pyrrolo[2,3-b]pyridin-5-yl)oxy)-4′-(2-(2-(1-(2-(dimethylamino)-2-oxoethyl)piperidin-4-yl)phenyl)pyrrolidin-1-yl)-N-((3-nitro-4-(((tetrahydro-2H-pyran-4-yl)methyl)amino)phenyl)sulfonyl)-[1,1′-biphenyl]-4-carboxamide] | 4610 nM | 16 nM
8 | CNCCC(=O)N1CCC(c2ccccc2[C@H]2CCCN2c2ccc(-c3ccc(C(=O)NS(=O)(=O)c4ccc(NCC5CCOCC5)c([N+](=O)[O-])c4)c(Oc4cnc5[nH]ccc5c4)c3)cc2)CC1 [Example A106, (R)-3-((1H-pyrrolo[2,3-b]pyridin-5-yl)oxy)-4′-(2-(2-(1-(3-(methylamino)propanoyl)piperidin-4-yl)phenyl)pyrrolidin-1-yl)-N -((3-nitro-4-(((tetrahydro-2H-pyran-4-yl)methyl)amino)phenyl)sulfonyl)-[1,1′-biphenyl]-4-carboxamide] | > 10000 nM | 175 nM
9 | O=C(NS(=O)(=O)c1ccc(NCC2CCOCC2)c([N+](=O)[O-])c1)c1ccc(-c2ccc(N3CCC[C@@H]3c3ccccc3C3=CCN(Cc4ccccc4)CC3)cc2)cc1Oc1cnc2[nH]ccc2c1 [Example A108, (R)-3-((1H-pyrrolo[2,3-b]pyridin-5-yl)oxy)-4′-(2-(2-(1-benzyl-1,2,3,6-tetrahydropyridin-4-yl)phenyl)pyrrolidin-1-yl)-N-((3-nitro-4-(((tetrahydro-2H-pyran-4-yl)methyl)amino)phenyl)sulfonyl)-[1,1′-biphenyl]-4-carboxamide] | > 10000 nM | 32 nM
10 | CC(=O)N1CC=C(c2ccccc2[C@H]2CCCN2c2ccc(-c3ccc(C(=O)NS(=O)(=O)c4ccc(NCC5CCOCC5)c([N+](=O)[O-])c4)c(Oc4cnc5[nH]ccc5c4)c3)cc2)CC1 [Example A109, (R)-3-((1H-pyrrolo[2,3-b]pyridin-5-yl)oxy)-4′-(2-(2-(1-acetyl-1,2,3,6-tetrahydropyridin-4-yl)phenyl)pyrrolidin-1-yl)-N-((3-nitro-4-(((tetrahydro-2H-pyran-4-yl)methyl)amino)phenyl)sulfonyl)-[1,1′-biphenyl]-4-carboxamide] | 1320 nM | 2.7 nM
11 | CC(=O)N1CCC(c2ccccc2[C@H]2CCCN2c2ccc(-c3ccc(C(=O)NS(=O)(=O)c4ccc(NCC5CCOCC5)c([N+](=O)[O-])c4)c(Oc4cnc5[nH]ccc5c4)c3)cc2)CC1 [Example A110, (R)-3-((1H-pyrrolo[2,3-b]pyridin-5-yl)oxy)-4′-(2-(2-(1-acetylpiperidin-4-yl)phenyl)pyrrolidin-1-yl)-N-((3-nitro-4-(((tetrahydro-2H-pyran-4-yl)methyl)amino)phenyl)sulfonyl)-[1,1′-biphenyl]-4-carboxamide] | 1260 nM | 15 nM
12 | CS(=O)(=O)N1CC=C(c2ccccc2C2CCCN2c2ccc(-c3ccc(C(=O)NS(=O)(=O)c4ccc(NCC5CCOCC5)c([N+](=O)[O-])c4)c(Oc4cnc5[nH]ccc5c4)c3)cc2)CC1 (stereo not shown) [Example A111, 3-((1H-pyrrolo[2,3-b]pyridin-5-yl)oxy)-4′-(2-(2-(1-(methylsulfonyl)-1,2,3,6-tetrahydropyridin-4-yl)phenyl)pyrrolidin-1-yl)-N-((3-nitro-4-(((tetrahydro-2H-pyran-4-yl)methyl)amino)phenyl)sulfonyl)-[1,1′-biphenyl]-4-carboxamide] | 6290 nM | 31 nM
13 | CN1CCC(Cc2ccccc2[C@H]2CCCN2c2ccc(-c3ccc(C(=O)NS(=O)(=O)c4ccc(NCC5CCOCC5)c([N+](=O)[O-])c4)c(Oc4cnc5[nH]ccc5c4)c3)cc2)CC1 [Example A112, (R)-3-((1H-pyrrolo[2,3-b]pyridin-5-yl)oxy)-4′-(2-(2-((1-methylpiperidin-4-yl)methyl)phenyl)pyrrolidin-1-yl)-N-((3-nitro-4-(((tetrahydro-2H-pyran-4-yl)methyl)amino)phenyl)sulfonyl)-[1,1′-biphenyl]-4-carboxamide] | 1210 nM | 3.4 nM
14 | CN1CCC(Oc2ccccc2C2CCCN2c2ccc(-c3ccc(C(=O)NS(=O)(=O)c4ccc(NCC5CCOCC5)c([N+](=O)[O-])c4)c(Oc4cnc5[nH]ccc5c4)c3)cc2)CC1 (stereo not shown) [Example A113, 3-((1H-pyrrolo[2,3-b]pyridin-5-yl)oxy)-4′-(2-(2-((1-methylpiperidin-4-yl)oxy)phenyl)pyrrolidin-1-yl)-N-((3-nitro-4-(((tetrahydro-2H-pyran-4-yl)methyl)amino)phenyl)sulfonyl)-[1,1′-biphenyl]-4-carboxamide] | 1190 nM | 8.6 nM
15 | NC(=O)C1CCC(c2ccccc2[C@H]2CCCN2c2ccc(-c3ccc(C(=O)NS(=O)(=O)c4ccc(NCC5CCOCC5)c([N+](=O)[O-])c4)c(Oc4cnc5[nH]ccc5c4)c3)cc2)CC1 (stereo partly drawn) [Example A115, (R)-3-((1H-pyrrolo[2,3-b]pyridin-5-yl)oxy)-4′-(2-(2-(4-carbamoylcyclohexyl)phenyl)pyrrolidin-1-yl)-N-((3-nitro-4-(((tetrahydro-2H-pyran-4-yl)methyl)amino)phenyl)sulfonyl)-[1,1′-biphenyl]-4-carboxamide] | 3840 nM | 22 nM
16 | CN1CCN(c2ccccc2C2CCCN2c2ccc(-c3ccc(C(=O)NS(=O)(=O)c4ccc(NCC5CCOCC5)c([N+](=O)[O-])c4)c(Oc4cnc5[nH]ccc5c4)c3)cc2)CC1 (stereo not shown) [Example A121, 3-((1H-pyrrolo[2,3-b]pyridin-5-yl)oxy)-4′-(2-(2-(4-methylpiperazin-1-yl)phenyl)pyrrolidin-1-yl)-N-((3-nitro-4-(((tetrahydro-2H-pyran-4-yl)methyl)amino)phenyl)sulfonyl)-[1,1′-biphenyl]-4-carboxamide] | 1800 nM | 6.6 nM
17 | O=C(NS(=O)(=O)c1ccc(NCC2CCOCC2)c([N+](=O)[O-])c1)c1ccc(-c2ccc(N3CCCC3c3ccccc3N3CCOCC3)cc2)cc1Oc1cnc2[nH]ccc2c1 (stereo not shown) [Example A122, 3-((1H-pyrrolo[2,3-b]pyridin-5-yl)oxy)-4′-(2-(2-morpholinophenyl)pyrrolidin-1-yl)-N-((3-nitro-4-(((tetrahydro-2H-pyran-4-yl)methyl)amino)phenyl)sulfonyl)-[1,1′-biphenyl]-4-carboxamide] | 6920 nM | 48 nM
